Laboratory results as given in paper PMC4336329 (PLoS ONE, 2015).
About 2,200 (0.71%) of roughly 310,000 compounds showed an effect of 50% or more. The effect is printed as a negative number. The list shows a part of the results.

biological target: human ether-à-go-go-related gene (hERG) potassium channel (human, UniProt Q12809); assay: primary screen, population patch clamp on CHO cells stably expressing hERG
Sequence (Q12809 whole entry, looked up): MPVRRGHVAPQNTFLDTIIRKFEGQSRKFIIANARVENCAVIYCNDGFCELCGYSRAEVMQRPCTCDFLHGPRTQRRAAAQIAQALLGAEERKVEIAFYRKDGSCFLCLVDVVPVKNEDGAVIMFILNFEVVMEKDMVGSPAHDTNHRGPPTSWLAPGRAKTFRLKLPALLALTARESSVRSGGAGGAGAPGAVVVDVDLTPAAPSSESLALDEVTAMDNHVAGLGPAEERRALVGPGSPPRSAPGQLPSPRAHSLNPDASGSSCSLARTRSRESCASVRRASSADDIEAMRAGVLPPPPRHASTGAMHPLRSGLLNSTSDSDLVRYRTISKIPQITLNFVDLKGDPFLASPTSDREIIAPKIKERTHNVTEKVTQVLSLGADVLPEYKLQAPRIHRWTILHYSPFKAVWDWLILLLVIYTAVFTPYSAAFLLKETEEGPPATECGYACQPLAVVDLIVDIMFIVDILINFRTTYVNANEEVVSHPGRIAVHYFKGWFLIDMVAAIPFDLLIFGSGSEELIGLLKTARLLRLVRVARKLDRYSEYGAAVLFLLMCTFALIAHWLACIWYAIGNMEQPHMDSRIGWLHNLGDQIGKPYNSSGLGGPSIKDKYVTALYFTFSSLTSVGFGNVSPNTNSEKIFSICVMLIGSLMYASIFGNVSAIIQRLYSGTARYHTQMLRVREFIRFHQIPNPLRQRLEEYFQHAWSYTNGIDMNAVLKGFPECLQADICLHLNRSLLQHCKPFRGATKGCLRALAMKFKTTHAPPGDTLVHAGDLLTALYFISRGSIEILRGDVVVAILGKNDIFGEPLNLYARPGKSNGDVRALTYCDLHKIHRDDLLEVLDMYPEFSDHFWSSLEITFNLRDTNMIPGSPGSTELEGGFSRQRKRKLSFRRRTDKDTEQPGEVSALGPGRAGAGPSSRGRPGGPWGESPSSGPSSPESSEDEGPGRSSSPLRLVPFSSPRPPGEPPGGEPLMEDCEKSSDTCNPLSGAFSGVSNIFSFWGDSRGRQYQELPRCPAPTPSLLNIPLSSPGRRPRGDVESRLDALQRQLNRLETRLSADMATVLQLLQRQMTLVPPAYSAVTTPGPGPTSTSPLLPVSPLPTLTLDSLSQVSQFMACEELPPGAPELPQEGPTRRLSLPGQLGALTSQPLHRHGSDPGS

Compound | hERG current change (%, negative = inhibition) at 1uM [%]
N#Cc1c(Cl)cccc1-n1ccnc1 | 3.17
CN(C)c1ccc(C(=O)OCc2ccccc2)cc1 | 14
CCOC(=O)C1=C(C)NC(=O)CC1c1ccccc1OC (centres unmarked) | 12
COc1ccccc1NC(=O)Cn1c(=O)oc2cc(S(=O)(=O)N3CCCC3)ccc21 | 16.4
CC(=O)C1=C(O)C(=O)N(CCN2CCOCC2)C1c1ccc(N(C)C)cc1.Cl (centres unmarked) | 3.95
CCc1cc(C)cc(OCCOc2ccccc2/C=N/NC(C)=O)c1 | 11.6
COc1cccc(OCC(=O)O/N=C(\N)c2ccc(OC)c(OC)c2)c1 | 9.32
CC(C)c1ccccc1NC(=O)CC1(CC(=O)O)CCCC1 | -1.31
COc1cccc2[nH]c(=O)c(-c3ccccc3)cc12 | 11.7
Cc1cc(C(=O)COC(=O)c2ccc[nH]c2=O)c(C)n1-c1ccc(Br)cc1 | 3.19
COc1ccccc1Nc1nc(C)cc(C)c1C(N)=O | 7.52
CCN(CC)c1ccc2cc(C(=O)Nc3ccccn3)c(=O)oc2c1 | 14.9
COc1ccc(-c2cc(C(=O)NCc3cccnc3)no2)cc1 | -12.3
CN(C)CC(NC(=O)c1cccc(S(=O)(=O)Nc2ccc3c(c2)OCO3)c1)c1ccccc1 (centres unmarked) | 1.07
O=C1Nc2ccc(S(=O)(=O)NCc3ccco3)c3cccc1c23 | -13.8
CCOCCCn1c(SCC(=O)Nc2cc(C(C)(C)C)nn2-c2ccccc2)nc2ccccc2c1=O | -6.54
CC1=CC2=NC(=O)/C(=C\c3cc(C)n(-c4ccccc4F)c3C)C(=N)N2O1 | 8.4
O=C(O)c1cncc(C#CCC2CCCCC2)c1 | 3.72
CC(=O)c1ccc(NC(=O)c2ccccc2Sc2ncnc3sc(C)c(C)c23)cc1 | -2.71
O=C(Nc1ccc(N2CCCCC2)cc1)c1ccc2c(c1)OCCO2 | -0.219
COc1cccc(NC(C)C(=O)Nc2cc([N+](=O)[O-])ccc2Cl)c1 (centres unmarked) | 6.75
C/C(=N\O)C1/C(=N/O)CC2C1C2(C)C (centres unmarked) | -1.61

Compound | hERG current change (%, negative = inhibition) at 1uM [%]
CC(Sc1nnc(C2CC2)n1C1CC1)C(=O)Nc1cccc(S(=O)(=O)N(C)C)c1 (centres unmarked) | 6.02
Cc1ccccc1N(C(=O)Cn1nnc2ccccc21)C(C(=O)NCc1ccco1)c1ccncc1 (centres unmarked) | 5.11
COc1ccc(CNC(=O)COC(=O)CCc2c[nH]c3ccccc23)cc1 | 11.2
Cc1nc(Nc2nc(CSc3nc4ccccc4[nH]3)cc(=O)[nH]2)nc2ccccc12 | 13.6
CC1(C)CC(NC(=O)CCc2ccccc2)CC(C)(C)N1.Cl | 9.57
O=C(Nc1cccnc1)c1cccnc1Cl | 11.1
CCCCOc1ccc(C(C)=O)cc1Cc1c(O)[nH]c(=S)[nH]c1=O | 14.8
COc1ccc(CN(CC(=O)NCc2ccc(F)cc2)C(=O)CCC(=O)Nc2cc(C)ccn2)cc1 | -3.3
O=C(COC(=O)c1cc([N+](=O)[O-])ccc1NCc1ccccc1)NC1CCCc2ccccc21 (centres unmarked) | 12.2
CCOc1cc(C(=O)NC)cc(Br)c1OCc1ccccc1 | 6.47
CCOc1ccccc1NC(=O)COn1nnc2ccc(Cl)cc21 | 6.27
CCc1ccc(N2C(=O)C3C(C2=O)N2CCCN2C3c2ccccc2)cc1 (centres unmarked) | 19.7
CCN(CC)S(=O)(=O)c1cccc(-c2nnc(SCc3nnc(-c4cccs4)o3)n2N)c1 | -1.29
c1ccc(-c2noc(-c3cccnc3)n2)cc1 | 5.79
CN(C)CCCN=Cc1c(O)n(CCc2ccc(F)cc2)c(=O)[nH]c1=O | 14.7
Cc1ccc(/C=C/C(=O)Nc2cc(S(N)(=O)=O)ccc2O)cc1 | -20.6
Cc1ccc(N(C(=O)c2csnn2)C(C(=O)NC2CCCCC2)c2cccnc2)cc1C (centres unmarked) | 11.5
Cc1c(NC(=S)NC(=O)C(C)(C)C)c(=O)n(-c2ccccc2)n1C | 2.33
Cc1ccc(C(=O)OCC(=O)NCc2ccco2)s1 | 15.9
CC12CC[C@H]3[C@@H](CCC4(O)C[C@H](O)CCC34/C=N/NC(=O)c3ccccc3F)C1(O)CCC2C1=CC(=O)OC1 (some centres unmarked) | 11.7
CCC(C)C(=O)Nc1cc([N+](=O)[O-])ccc1Cl (centres unmarked) | 7.76
CSc1ncccc1C(=O)OCC(=O)N(CC(C)C)c1c(N)n(Cc2ccccc2)c(=O)[nH]c1=O | 10.6

Compound | hERG current change (%, negative = inhibition) at 1uM [%]
N#C/C(=C\c1cn(Cc2ccccc2F)c2ccccc12)C(=O)NCc1ccco1 | 11.7
Cc1cc(/C=C2\C(=O)NC(=O)N(c3ccc(Cl)cc3)C2=O)c(C)n1-c1cccc(C(=O)O)c1 | 14.9
c1ccc2c(c1)CCNC2c1ccncc1 (centres unmarked) | 16.1
O=C(COC(=O)Cc1n[nH]c(=O)c2ccccc12)Nc1ccc(Cl)cn1 | 8.19
COc1ccc(CC(C#N)(CO)c2nc3ccccc3[nH]2)cc1 (centres unmarked) | 2.2
COc1ccc(Cn2c(C)nc3c(c(=O)c4ccccc4n3C)c2=O)cc1 | 13.1
COc1ccc(C(=O)NCc2ccc(C(=O)O)o2)cc1 | 4.44
COCc1ccc(CN2CCC(CO)(CC3CCCCO3)CC2)o1 (centres unmarked) | 18.7
CCCN(CC(=O)Nc1ccc(Cl)cc1Cl)C(=O)/C=C/c1cc(OC)ccc1OC | 15.5
COc1ccc(Cn2c(O)c(C=Nc3c(C)n(C)n(-c4ccccc4)c3=O)c(=O)[nH]c2=O)cc1 | 6.69
CSc1ccc(/C=C(\C#N)C(=O)Nc2cccc(C)c2)cc1 | 5.32
COc1cccc(NC(=O)c2nn(C)c3c2CS(=O)(=O)c2ccccc2-3)c1 | 26.1
COc1ccc(N2CCN(C(=O)COC(=O)c3cnccn3)CC2)cc1 | 10.8
CCS(=O)(=O)Nc1ccc(-c2nnc(SCC(=O)c3ccc(NC(C)=O)c(OC)c3)o2)cc1 | 0.619
CC(C)(C)c1nc2cc(Cl)c([N+](=O)[O-])cc2o1 | 8.86
Cc1cc([N+](=O)[O-])nn1CC(=O)Nc1ccccn1 | 8.07
COc1ccc(N(C)S(=O)(=O)c2c(C)[nH]c(=O)[nH]c2=O)c(OC)c1 | -0.199
O=C1CCCc2oc3c(cc(NS(=O)(=O)c4ccc5c6c(cccc46)C(=O)N5)c4ccccc43)c21 | -6.54
CCCCN(C(=O)c1c(CC)noc1C)c1c(N)n(CC(C)C)c(=O)[nH]c1=O | 6.4
C=CCC(NCc1ccccc1)c1ccc(Cl)cc1 (centres unmarked) | 9.54
O=C(CNC(=O)c1ccc(F)cc1)c1ccc(Cl)cc1 | 19.6
O=C(c1cccc(F)c1)N1CCc2ccccc21 | -4.39

Compound | hERG current change (%, negative = inhibition) at 1uM [%]
CC(=O)c1ccc(NC(=S)N2CCN(c3ccccn3)CC2)cc1 | 13.1
COc1ccc(Cl)cc1N1C(=O)CC(Sc2ccccc2N)C1=O (centres unmarked) | 6.94
Cc1cccc(CS(=O)(=O)c2ncc(Cl)c(C(=O)NCc3ccccc3)n2)c1 | 2.19
O=C(CSC1CC(=O)N(CCc2ccccc2)C1=O)Nc1ccc(Br)cc1 (centres unmarked) | -4.8
CSc1ccc(/C=C(\C#N)C(=O)NC2CCCCC2C)cc1 (centres unmarked) | 1.5
CCOC(=O)Cc1csc(NC(=O)CC(C)(C)C)n1 | 16.6
Cc1ccccc1NC(=O)c1ccc(F)c(S(=O)(=O)N2CCCCC2)c1 | 9.08
C=CCn1c(SCC(=O)Nc2ccc(F)cc2F)nnc1-c1cnccn1 | 2.14
CC(C)(C)C(=O)Nc1ccccc1C(=O)N1CCCC1 | 16.7
Cc1ccc(CNC(=O)c2cc(-c3ccccc3C)n(CC3CC(c4cccc([N+](=O)[O-])c4)=NO3)n2)cc1 (centres unmarked) | 7.74
COc1cc(OC)cc(OC(=O)C2CCN(S(=O)(=O)c3ccc(OC)c(OC)c3)CC2)c1 | 3.95
CSc1ccccc1C(=O)Nc1ccc(C)cc1C | 7.24
CCN1CCN(CCCNC(=O)C2c3ccccc3C(=O)N(c3ccc(OC)cc3)C2c2ccc(OC)cc2)CC1 (centres unmarked) | 12
COc1ccc2c(c1OC)C(=O)O[C@@H]2[C@H]1c2c(cc3c(c2OC)OCO3)CCN1C | 8.55
COc1ccc(/C=C/C(=O)NC(=S)NNC(=O)c2c(-c3ccccc3)noc2C)cc1 | 12.2
Cc1cc[n+]2cc(-c3cccc([N+](=O)[O-])c3)c(-c3cccc([N+](=O)[O-])c3)cc2c1.[Br-] | -22.7
Cc1cccc(OCC(=O)NC(=S)N2CCCc3ccccc32)c1 | 13.2
Oc1cccc(NC(=S)Nc2ccc(SC(F)F)cc2)c1 | 7.38
O=c1ccc2cc3c([nH]c4ccc(Br)cc43)oc-2c1O | 4.16
COc1ccc(OC)c(C2CC(c3ccccc3)=NN2C(=S)Nc2ccccc2)c1 (centres unmarked) | 1.5
